Some of the results follow. The list includes weakly bound sequences.

For this assay, the target named is T1, MBP-FoxP3dN (UniProt Q99JB6).
T1 sequence: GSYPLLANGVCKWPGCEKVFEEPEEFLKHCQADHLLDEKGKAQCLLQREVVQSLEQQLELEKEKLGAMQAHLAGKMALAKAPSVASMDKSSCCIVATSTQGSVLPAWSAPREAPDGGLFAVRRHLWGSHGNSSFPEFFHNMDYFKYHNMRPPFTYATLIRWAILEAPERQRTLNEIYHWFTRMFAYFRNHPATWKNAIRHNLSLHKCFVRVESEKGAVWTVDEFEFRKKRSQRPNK
As to the kind of experiment: PD-seq (MBP pull-down with sequencing). Particulars: 20 mM Tris-HCl pH 7.5, 100 mM NaCl, 1.5 mM MgCl2, 0.4 uM protein, 0.1 uM dsDNA library, 30 min, room temperature, amylose pull-down; high values mean tight binding; double strand, one strand shown.
Consider “GATGATTGTTCTCCCAGCTGATGAATTTTGCTAATCGAGTAAACAAATTTTCCTAATCTTTCTGTTCAAGCGCCATCTAC”, for which the binding signal (RPM ratio (pull-down/input)) amounted to 0.575. The same measure for “GATGATTGTTCTCCCAGCTGATGAATTCGGTCACTCGAGTAAACAAATTTTCCTAATCTTTCTGTTCAAGCGCCATCTAC”: 0.603. Regarding “GATGATTGTTCTCCCAGCTGATGAATTGCGTAGCTCGAGTAAACAAATTTTCCTAATCTTTCTGTTCAAGCGCCATCTAC”, the binding signal (RPM ratio (pull-down/input)) was found to be 1.02. As for “GATGATTGTTCTCCCAGCTGATGAATTTGCTTACTCGAGTAAACAAATTTTCCTAATCTTTCTGTTCAAGCGCCATCTAC”, the binding signal (RPM ratio (pull-down/input)) is 6.78.

For the sequence “GATGATTGTTCTCCCAGCTGATGAATTAGTGCCCTCGAGTAAACAAATTTTCCTAATCTTTCTGTTCAAGCGCCATCTAC”, the binding signal (RPM ratio (pull-down/input)) came out at 0.774. Under “GATGATTGTTCTCCCAGCTGATGAATTACAACTGTCGAGTAAACAAATTTTCCTAATCTTTCTGTTCAAGCGCCATCTAC” stands 0.794; under “GATGATTGTTCTCCCAGCTGATGAATTCATCGATTCGAGTAAACAAATTTTCCTAATCTTTCTGTTCAAGCGCCATCTAC”, 0.372; under “GATGATTGTTCTCCCAGCTGATGAATTAACCAAGTCGAGTAAACAAATTTTCCTAATCTTTCTGTTCAAGCGCCATCTAC”, 0.181.

For the sequence “GATGATTGTTCTCCCAGCTGATGAATTCTATGACTCGAGTAAACAAATTTTCCTAATCTTTCTGTTCAAGCGCCATCTAC”, the binding signal (RPM ratio (pull-down/input)) was determined as 0.398. Take “GATGATTGTTCTCCCAGCTGATGAATTCTGATTGTCGAGTAAACAAATTTTCCTAATCTTTCTGTTCAAGCGCCATCTAC”: the binding signal (RPM ratio (pull-down/input)) worked out at 3.01. The same measure for “GATGATTGTTCTCCCAGCTGATGAATTAAAGCTCTCGAGTAAACAAATTTTCCTAATCTTTCTGTTCAAGCGCCATCTAC”: 0.451; for “GATGATTGTTCTCCCAGCTGATGAATTCTCTCCGTCGAGTAAACAAATTTTCCTAATCTTTCTGTTCAAGCGCCATCTAC”: 0.188; for “GATGATTGTTCTCCCAGCTGATGAATTCTAACTTTCGAGTAAACAAATTTTCCTAATCTTTCTGTTCAAGCGCCATCTAC”: 0.375. As to “GATGATTGTTCTCCCAGCTGATGAATTTCATTATTCGAGTAAACAAATTTTCCTAATCTTTCTGTTCAAGCGCCATCTAC”, the binding signal (RPM ratio (pull-down/input)) is 1.44. In the case of “GATGATTGTTCTCCCAGCTGATGAATTCGTGTGGTCGAGTAAACAAATTTTCCTAATCTTTCTGTTCAAGCGCCATCTAC”, the binding signal (RPM ratio (pull-down/input)) is 1.4.

Consider “GATGATTGTTCTCCCAGCTGATGAATTTCGGTAGTCGAGTAAACAAATTTTCCTAATCTTTCTGTTCAAGCGCCATCTAC”, for which the binding signal (RPM ratio (pull-down/input)) worked out at 0.427. For the sequence “GATGATTGTTCTCCCAGCTGATGAATTGACGAGCTCGAGTAAACAAATTTTCCTAATCTTTCTGTTCAAGCGCCATCTAC”, the binding signal (RPM ratio (pull-down/input)) was 0.244.

In the case of “GATGATTGTTCTCCCAGCTGATGAATTTTCGGTCTCGAGTAAACAAATTTTCCTAATCTTTCTGTTCAAGCGCCATCTAC”, the binding signal (RPM ratio (pull-down/input)) was 0.366.

Consider “GATGATTGTTCTCCCAGCTGATGAATTCTAATAATCGAGTAAACAAATTTTCCTAATCTTTCTGTTCAAGCGCCATCTAC”, for which the binding signal (RPM ratio (pull-down/input)) stood at 0.331.

Take “GATGATTGTTCTCCCAGCTGATGAATTTCTCAGGTCGAGTAAACAAATTTTCCTAATCTTTCTGTTCAAGCGCCATCTAC”: the binding signal (RPM ratio (pull-down/input)) turned out to be 0.172. The same measure for “GATGATTGTTCTCCCAGCTGATGAATTTAGAGCATCGAGTAAACAAATTTTCCTAATCTTTCTGTTCAAGCGCCATCTAC”: 0.922; for “GATGATTGTTCTCCCAGCTGATGAATTATAGGCGTCGAGTAAACAAATTTTCCTAATCTTTCTGTTCAAGCGCCATCTAC”: 0.633; for “GATGATTGTTCTCCCAGCTGATGAATTAGACTCGTCGAGTAAACAAATTTTCCTAATCTTTCTGTTCAAGCGCCATCTAC”: 0.388. For “GATGATTGTTCTCCCAGCTGATGAATTTCGTCTTTCGAGTAAACAAATTTTCCTAATCTTTCTGTTCAAGCGCCATCTAC”, the binding signal (RPM ratio (pull-down/input)) amounted to 0.758. “GATGATTGTTCTCCCAGCTGATGAATTCCTACATTCGAGTAAACAAATTTTCCTAATCTTTCTGTTCAAGCGCCATCTAC”: the binding signal (RPM ratio (pull-down/input)) came to 0.384. For the sequence “GATGATTGTTCTCCCAGCTGATGAATTCAAAGGCTCGAGTAAACAAATTTTCCTAATCTTTCTGTTCAAGCGCCATCTAC”, the binding signal (RPM ratio (pull-down/input)) is 0.281.

For the sequence “GATGATTGTTCTCCCAGCTGATGAATTTCACACGTCGAGTAAACAAATTTTCCTAATCTTTCTGTTCAAGCGCCATCTAC”, the binding signal (RPM ratio (pull-down/input)) turned out to be 0.317. Take “GATGATTGTTCTCCCAGCTGATGAATTATGGGAGTCGAGTAAACAAATTTTCCTAATCTTTCTGTTCAAGCGCCATCTAC”: the binding signal (RPM ratio (pull-down/input)) is 0.328. As for “GATGATTGTTCTCCCAGCTGATGAATTTACGGCTTCGAGTAAACAAATTTTCCTAATCTTTCTGTTCAAGCGCCATCTAC”, the binding signal (RPM ratio (pull-down/input)) worked out at 0.597. Turning to “GATGATTGTTCTCCCAGCTGATGAATTGCCATCCTCGAGTAAACAAATTTTCCTAATCTTTCTGTTCAAGCGCCATCTAC”, the binding signal (RPM ratio (pull-down/input)) turned out to be 0.935. Consider “GATGATTGTTCTCCCAGCTGATGAATTAGTCAATTCGAGTAAACAAATTTTCCTAATCTTTCTGTTCAAGCGCCATCTAC”, for which the binding signal (RPM ratio (pull-down/input)) turned out to be 0.607. On to “GATGATTGTTCTCCCAGCTGATGAATTTTAGGCTTCGAGTAAACAAATTTTCCTAATCTTTCTGTTCAAGCGCCATCTAC”, for which the binding signal (RPM ratio (pull-down/input)) is 0.367. Regarding “GATGATTGTTCTCCCAGCTGATGAATTTCACAGATCGAGTAAACAAATTTTCCTAATCTTTCTGTTCAAGCGCCATCTAC”, the binding signal (RPM ratio (pull-down/input)) is 0.182. Regarding “GATGATTGTTCTCCCAGCTGATGAATTACGAGAGTCGAGTAAACAAATTTTCCTAATCTTTCTGTTCAAGCGCCATCTAC”, the binding signal (RPM ratio (pull-down/input)) was determined as 0.329. Take “GATGATTGTTCTCCCAGCTGATGAATTAATGTCATCGAGTAAACAAATTTTCCTAATCTTTCTGTTCAAGCGCCATCTAC”: the binding signal (RPM ratio (pull-down/input)) turned out to be 0.999.

Take “GATGATTGTTCTCCCAGCTGATGAATTCTTTACTTCGAGTAAACAAATTTTCCTAATCTTTCTGTTCAAGCGCCATCTAC”: the binding signal (RPM ratio (pull-down/input)) stood at 0.373. Under “GATGATTGTTCTCCCAGCTGATGAATTCTTTAGGTCGAGTAAACAAATTTTCCTAATCTTTCTGTTCAAGCGCCATCTAC” stands 0.206. With “GATGATTGTTCTCCCAGCTGATGAATTGAACGGGTCGAGTAAACAAATTTTCCTAATCTTTCTGTTCAAGCGCCATCTAC”, the binding signal (RPM ratio (pull-down/input)) was 0.23. For “GATGATTGTTCTCCCAGCTGATGAATTTCCATCTTCGAGTAAACAAATTTTCCTAATCTTTCTGTTCAAGCGCCATCTAC”, the binding signal (RPM ratio (pull-down/input)) was 0.333.

Turning to “GATGATTGTTCTCCCAGCTGATGAATTCGAGGACTCGAGTAAACAAATTTTCCTAATCTTTCTGTTCAAGCGCCATCTAC”, the binding signal (RPM ratio (pull-down/input)) amounted to 0.271. Under “GATGATTGTTCTCCCAGCTGATGAATTAAGTGGTTCGAGTAAACAAATTTTCCTAATCTTTCTGTTCAAGCGCCATCTAC” stands 1.15; under “GATGATTGTTCTCCCAGCTGATGAATTTACCCGATCGAGTAAACAAATTTTCCTAATCTTTCTGTTCAAGCGCCATCTAC”, 0.288; under “GATGATTGTTCTCCCAGCTGATGAATTCCTCGTTTCGAGTAAACAAATTTTCCTAATCTTTCTGTTCAAGCGCCATCTAC”, 0.296. Turning to “GATGATTGTTCTCCCAGCTGATGAATTCAGCGTTTCGAGTAAACAAATTTTCCTAATCTTTCTGTTCAAGCGCCATCTAC”, the binding signal (RPM ratio (pull-down/input)) amounted to 2.92. The same measure for “GATGATTGTTCTCCCAGCTGATGAATTAGCTCGATCGAGTAAACAAATTTTCCTAATCTTTCTGTTCAAGCGCCATCTAC”: 0.234; for “GATGATTGTTCTCCCAGCTGATGAATTTTGGGGCTCGAGTAAACAAATTTTCCTAATCTTTCTGTTCAAGCGCCATCTAC”: 0.319. As for “GATGATTGTTCTCCCAGCTGATGAATTACCTCGATCGAGTAAACAAATTTTCCTAATCTTTCTGTTCAAGCGCCATCTAC”, the binding signal (RPM ratio (pull-down/input)) was found to be 0.264. With “GATGATTGTTCTCCCAGCTGATGAATTAATCGGATCGAGTAAACAAATTTTCCTAATCTTTCTGTTCAAGCGCCATCTAC”, the binding signal (RPM ratio (pull-down/input)) amounted to 0.206. The same measure for “GATGATTGTTCTCCCAGCTGATGAATTGTAGCAGTCGAGTAAACAAATTTTCCTAATCTTTCTGTTCAAGCGCCATCTAC”: 0.722; for “GATGATTGTTCTCCCAGCTGATGAATTCAGGTAATCGAGTAAACAAATTTTCCTAATCTTTCTGTTCAAGCGCCATCTAC”: 0.466; for “GATGATTGTTCTCCCAGCTGATGAATTGCTAGGGTCGAGTAAACAAATTTTCCTAATCTTTCTGTTCAAGCGCCATCTAC”: 0.463. With “GATGATTGTTCTCCCAGCTGATGAATTTAGTTGATCGAGTAAACAAATTTTCCTAATCTTTCTGTTCAAGCGCCATCTAC”, the binding signal (RPM ratio (pull-down/input)) stood at 3.09. The same measure for “GATGATTGTTCTCCCAGCTGATGAATTTCTATCGTCGAGTAAACAAATTTTCCTAATCTTTCTGTTCAAGCGCCATCTAC”: 0.348; for “GATGATTGTTCTCCCAGCTGATGAATTGGAAGAATCGAGTAAACAAATTTTCCTAATCTTTCTGTTCAAGCGCCATCTAC”: 0.188; for “GATGATTGTTCTCCCAGCTGATGAATTGCTGCGCTCGAGTAAACAAATTTTCCTAATCTTTCTGTTCAAGCGCCATCTAC”: 0.822. Consider “GATGATTGTTCTCCCAGCTGATGAATTGCGGATCTCGAGTAAACAAATTTTCCTAATCTTTCTGTTCAAGCGCCATCTAC”, for which the binding signal (RPM ratio (pull-down/input)) was 0.645.

For the sequence “GATGATTGTTCTCCCAGCTGATGAATTTCAACGGTCGAGTAAACAAATTTTCCTAATCTTTCTGTTCAAGCGCCATCTAC”, the binding signal (RPM ratio (pull-down/input)) turned out to be 0.241.

For the sequence “GATGATTGTTCTCCCAGCTGATGAATTGGAGTGATCGAGTAAACAAATTTTCCTAATCTTTCTGTTCAAGCGCCATCTAC”, the binding signal (RPM ratio (pull-down/input)) is 0.46. “GATGATTGTTCTCCCAGCTGATGAATTCTAGCTCTCGAGTAAACAAATTTTCCTAATCTTTCTGTTCAAGCGCCATCTAC”: the binding signal (RPM ratio (pull-down/input)) was found to be 0.384. Consider “GATGATTGTTCTCCCAGCTGATGAATTTTTTGCTTCGAGTAAACAAATTTTCCTAATCTTTCTGTTCAAGCGCCATCTAC”, for which the binding signal (RPM ratio (pull-down/input)) stood at 0.306.

Take “GATGATTGTTCTCCCAGCTGATGAATTCCCGGCCTCGAGTAAACAAATTTTCCTAATCTTTCTGTTCAAGCGCCATCTAC”: the binding signal (RPM ratio (pull-down/input)) is 0.296. Consider “GATGATTGTTCTCCCAGCTGATGAATTTCCAGCATCGAGTAAACAAATTTTCCTAATCTTTCTGTTCAAGCGCCATCTAC”, for which the binding signal (RPM ratio (pull-down/input)) stood at 0.656. The same measure for “GATGATTGTTCTCCCAGCTGATGAATTTTTGTCGTCGAGTAAACAAATTTTCCTAATCTTTCTGTTCAAGCGCCATCTAC”: 0.451.

Source of the values: publication PMC12820563.
